The source of these data is PMC9911399, “Two distinct binding modes provide the RNA-binding protein RbFox with extraordinary sequence specificity”.

T1: RBFOX1 RRM (Homo sapiens, UniProt Q9NWB1 109-208)
T1 sequence: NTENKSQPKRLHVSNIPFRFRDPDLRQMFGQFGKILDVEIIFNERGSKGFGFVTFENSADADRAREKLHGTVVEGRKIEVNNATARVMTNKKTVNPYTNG

B1: GGCCAAC (DNA:RNA)
RNA: GGGAGACCGGAAUUCAGAUUGUCCGGCCAACUUAAAUCCCGUCGUAGCCACCA
DNA 1: CAATCTGAATTCCGGTCTCCC
DNA 2: TGGTGGCTACGACGGGATT
B2: GCCGACA (DNA:RNA)
RNA: B1 RNA with G26C, C28G, A30C, C31A
DNA 1: CAATCTGAATTCCGGTCTCCC
DNA 2: TGGTGGCTACGACGGGATT
B3: AACGAAC (DNA:RNA)
RNA: B1 RNA with G25A, G26A, C28G
DNA 1: CAATCTGAATTCCGGTCTCCC
DNA 2: TGGTGGCTACGACGGGATT
B4: AAAUGUU (DNA:RNA)
RNA: GGGAGACCGGAAUUCAGAUUGUCCAAAUGUUUUAAAUCCCGUCGUAGCCACCA
DNA 1: CAATCTGAATTCCGGTCTCCC
DNA 2: TGGTGGCTACGACGGGATT
B5: AUACCAG (DNA:RNA)
RNA: B4 RNA with A26U, U28C, G29C, U30A, U31G
DNA 1: CAATCTGAATTCCGGTCTCCC
DNA 2: TGGTGGCTACGACGGGATT
B6: CAUUGAA (DNA:RNA)
RNA: B4 RNA with A25C, A27U, U30A, U31A
DNA 1: CAATCTGAATTCCGGTCTCCC
DNA 2: TGGTGGCTACGACGGGATT
B7: UAGUACA (DNA:RNA)
RNA: B4 RNA with A25U, A27G, G29A, U30C, U31A
DNA 1: CAATCTGAATTCCGGTCTCCC
DNA 2: TGGTGGCTACGACGGGATT
B8: AUUAUUC (DNA:RNA)
RNA: B4 RNA with A26U, A27U, U28A, G29U, U31C
DNA 1: CAATCTGAATTCCGGTCTCCC
DNA 2: TGGTGGCTACGACGGGATT
B9: UAUAGAA (DNA:RNA)
RNA: B4 RNA with A25U, A27U, U28A, U30A, U31A
DNA 1: CAATCTGAATTCCGGTCTCCC
DNA 2: TGGTGGCTACGACGGGATT
B10: UUGUGAA (DNA:RNA)
RNA: B4 RNA with A25U, A26U, A27G, U30A, U31A
DNA 1: CAATCTGAATTCCGGTCTCCC
DNA 2: TGGTGGCTACGACGGGATT
B11: GUAUUCC (DNA:RNA)
RNA: B4 RNA with A25G, A26U, G29U, U30C, U31C
DNA 1: CAATCTGAATTCCGGTCTCCC
DNA 2: TGGTGGCTACGACGGGATT
B12: CACAGGU (DNA:RNA)
RNA: B4 RNA with A25C, A27C, U28A, U30G
DNA 1: CAATCTGAATTCCGGTCTCCC
DNA 2: TGGTGGCTACGACGGGATT
B13: GGCUUCU (DNA:RNA)
RNA: B1 RNA with C28U, A29U, A30C, C31U
DNA 1: CAATCTGAATTCCGGTCTCCC
DNA 2: TGGTGGCTACGACGGGATT
B14: GGUCAGA (DNA:RNA)
RNA: B1 RNA with C27U, A30G, C31A
DNA 1: CAATCTGAATTCCGGTCTCCC
DNA 2: TGGTGGCTACGACGGGATT
B15: AUUGCCU (DNA:RNA)
RNA: B4 RNA with A26U, A27U, U28G, G29C, U30C
DNA 1: CAATCTGAATTCCGGTCTCCC
DNA 2: TGGTGGCTACGACGGGATT
B16: GACCAUG (DNA:RNA)
RNA: B1 RNA with G26A, A30U, C31G
DNA 1: CAATCTGAATTCCGGTCTCCC
DNA 2: TGGTGGCTACGACGGGATT
B17: AAGAGGG (DNA:RNA)
RNA: B4 RNA with A27G, U28A, U30G, U31G
DNA 1: CAATCTGAATTCCGGTCTCCC
DNA 2: TGGTGGCTACGACGGGATT
B18: GACAGUA (DNA:RNA)
RNA: B4 RNA with A25G, A27C, U28A, U31A
DNA 1: CAATCTGAATTCCGGTCTCCC
DNA 2: TGGTGGCTACGACGGGATT
B19: CACGAAG (DNA:RNA)
RNA: B1 RNA with G25C, G26A, C28G, C31G
DNA 1: CAATCTGAATTCCGGTCTCCC
DNA 2: TGGTGGCTACGACGGGATT
B20: UUUCUCG (DNA:RNA)
RNA: B1 RNA with G25U, G26U, C27U, A29U, A30C, C31G
DNA 1: CAATCTGAATTCCGGTCTCCC
DNA 2: TGGTGGCTACGACGGGATT
B21: CUAAUAU (DNA:RNA)
RNA: B4 RNA with A25C, A26U, U28A, G29U, U30A
DNA 1: CAATCTGAATTCCGGTCTCCC
DNA 2: TGGTGGCTACGACGGGATT
B22: GGAGCGG (DNA:RNA)
RNA: B1 RNA with C27A, C28G, A29C, A30G, C31G
DNA 1: CAATCTGAATTCCGGTCTCCC
DNA 2: TGGTGGCTACGACGGGATT
B23: UUUCAGA (DNA:RNA)
RNA: B1 RNA with G25U, G26U, C27U, A30G, C31A
DNA 1: CAATCTGAATTCCGGTCTCCC
DNA 2: TGGTGGCTACGACGGGATT
B24: UCAUUAU (DNA:RNA)
RNA: B4 RNA with A25U, A26C, G29U, U30A
DNA 1: CAATCTGAATTCCGGTCTCCC
DNA 2: TGGTGGCTACGACGGGATT
B25: UCAAGAG (DNA:RNA)
RNA: B4 RNA with A25U, A26C, U28A, U30A, U31G
DNA 1: CAATCTGAATTCCGGTCTCCC
DNA 2: TGGTGGCTACGACGGGATT
B26: UGGCGGA (DNA:RNA)
RNA: B1 RNA with G25U, C27G, A29G, A30G, C31A
DNA 1: CAATCTGAATTCCGGTCTCCC
DNA 2: TGGTGGCTACGACGGGATT
B27: GCAAAUG (DNA:RNA)
RNA: B4 RNA with A25G, A26C, U28A, G29A, U31G
DNA 1: CAATCTGAATTCCGGTCTCCC
DNA 2: TGGTGGCTACGACGGGATT
B28: ACGAAAU (DNA:RNA)
RNA: B4 RNA with A26C, A27G, U28A, G29A, U30A
DNA 1: CAATCTGAATTCCGGTCTCCC
DNA 2: TGGTGGCTACGACGGGATT
B29: AUGGUGG (DNA:RNA)
RNA: B4 RNA with A26U, A27G, U28G, G29U, U30G, U31G
DNA 1: CAATCTGAATTCCGGTCTCCC
DNA 2: TGGTGGCTACGACGGGATT
B30: GUCUGCG (DNA:RNA)
RNA: B4 RNA with A25G, A26U, A27C, U30C, U31G
DNA 1: CAATCTGAATTCCGGTCTCCC
DNA 2: TGGTGGCTACGACGGGATT
B31: AGGCCCA (DNA:RNA)
RNA: B1 RNA with G25A, C27G, A29C, A30C, C31A
DNA 1: CAATCTGAATTCCGGTCTCCC
DNA 2: TGGTGGCTACGACGGGATT

Where a chain is given by its changes, count along the chain named. The list shows a part of the results.

The target of the assay is T1, RBFOX1 RRM. Kind of assay: EMSA; HiTS-Eq, 1 nM pool, 10 min; buffer printed only for the single-RNA assays: 10 mM Tris pH 7.5, 150 mM NaCl, 3.4 mM EDTA, 0.001% NP-40, 30 C. Conditions: tags: His6 N-terminal (pET28a); label: 5' 32P. In outline: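 Purified RbFox RRM, wild type or mutant, was incubated for 10 min in 50 µL with 1 nM of a 5′-radiolabelled RNA pool carrying 7 randomized nucleotides, whose flanks were annealed to DNA oligonucleotides, over a series of increasing protein concentrations. Unbound RNA was resolved on 8% native PAGE, cut out, reverse-transcribed, barcoded by PCR and sequenced on an Illumina HiSeq 2500. Relative association constants were derived from changes in read counts for each RNA species versus the control reaction and normalised to the cognate motif.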
(In general: In EMSA bound probe runs differently from free probe, usually more slowly.)
For the molecule B1, the binding signal was 0.00841 KA relative to UGCAUGU.

As for B2, the binding signal was 0.00879 KA relative to UGCAUGU. Under B3 stands 0.00539 KA relative to UGCAUGU; under B4, 0.00494 KA relative to UGCAUGU. To B5 belongs 0.00118 KA relative to UGCAUGU. For the molecule B6, the binding signal was 0.00616 KA relative to UGCAUGU. To B7 belongs 0.00633 KA relative to UGCAUGU. As for B8, the binding signal is 0.0037 KA relative to UGCAUGU. To B9 belongs 0.0121 KA relative to UGCAUGU. To B10 belongs 0.0143 KA relative to UGCAUGU; to B11, 0.00909 KA relative to UGCAUGU. To B12 belongs 0.00495 KA relative to UGCAUGU; to B13, 0.0207 KA relative to UGCAUGU; to B14, 0.00171 KA relative to UGCAUGU.

As for B15, the binding signal is 0.0083 KA relative to UGCAUGU. To B16 belongs 0.0127 KA relative to UGCAUGU; to B17, 0.005 KA relative to UGCAUGU; to B18, 0.0098 KA relative to UGCAUGU. Take B19: the binding signal is 0.00654 KA relative to UGCAUGU. As for B20, the binding signal was 0.0134 KA relative to UGCAUGU. Under B21 stands 0.00179 KA relative to UGCAUGU; under B22, 0.0125 KA relative to UGCAUGU. To B23 belongs 0.0123 KA relative to UGCAUGU. To B24 belongs 0.00269 KA relative to UGCAUGU; to B25, 0.00877 KA relative to UGCAUGU; to B26, 0.0166 KA relative to UGCAUGU. Take B27: the binding signal is 0.00715 KA relative to UGCAUGU.

Turning to B28, the binding signal is 0.0032 KA relative to UGCAUGU. Turning to B29, the binding signal is 0.0151 KA relative to UGCAUGU. To B30 belongs 0.0225 KA relative to UGCAUGU; to B31, 0.00176 KA relative to UGCAUGU.
